Laboratory results: ChEMBL document CHEMBL5308541, “MAIP: An Open-Source Tool to Enrich High-Throughput Screening Output and Identify Novel, Druglike Molecules with Antimalarial Activity” (ACS Med Chem Lett, 2023)
Among all 150,000 compounds or so, about 540 (0.36%) showed an effect of 50% or more. This is one part of the list.

system: Plasmodium falciparum; experiment: Primary screen in NF54 nanoGlo assay, in single point, at 2uM, 72h; a lower Z score goes with more inhibition; assay type: functional, Erythrocyte; settings: timepoint 72 hour

| SMILES | % Inhibition [%] | Z score |
| --- | --- | --- |
| CCCN1CCN(C(C)CCCN(C(=O)C2CCCN(c3nccs3)C2)C2CC2)CC1 (stereo unspecified) | -9 | 1.94 |
| Cc1c(S(=O)(=O)N2CCC(N3CCCCC3)CC2)cc(-c2nc(-c3ccccc3)cs2)n1C | 1 | -0.24 |
| FC(F)(F)CN1CCN(Cc2ccc(-c3cccnc3)cc2)CC1 | 1 | -0.11 |
| CS(=O)(=O)Nc1ccc2[nH]c(-c3cccs3)nc2c1 | -6 | 1.07 |
| Cc1nc(N)sc1-c1cc(-c2c[nH]c3ccccc23)c(C#N)c(N)n1 | 1 | -0.12 |
| CNc1nc(C)cc(NCCn2c(C)cc3ccccc32)n1 | 4 | -0.75 |
| Cc1nccc(NCCCc2nc3cc(F)ccc3[nH]2)n1 | -4 | 0.63 |
| NC(=O)c1ccc2nc(CN3CCCN(C4CCCCC4)CC3)cc(O)c2c1 | -4 | 0.66 |
| CN1CCc2ncnc(NCCc3cnc4ccccc4c3)c2C1 | -11 | 1.64 |
| Cc1cc(F)ccc1C1CCN(C(=O)Nc2cnc(N3CCNCC3)nc2)CC1 | -4 | 0.71 |
| N#CCc1cccc(C(=O)Nc2cnccc2N2CCCCC2)c1 | -7 | 1.46 |
| CN(C)c1ccc(C(N)=NOCc2ccc(F)c3cccnc23)cc1 | 1 | -0.12 |
| O=C(NC1CCN(c2nc(-c3cccnc3)cs2)CC1)c1ccc2ncsc2c1 | -7 | 1.28 |
| O=C(O)CCN(CCC(=O)O)c1ccc(/C=C/c2ccnc3ccccc23)cc1 | -11 | 1.6 |
| CCCCN1CCC(NC(=O)N(CC)Cc2ccc3[nH]ccc3c2)CC1 | 5 | -0.83 |
| O=C(CN1CCCN(Cc2ccc3cn[nH]c3c2)CC1)N1CCCC1 | 7 | -1.19 |
| COc1cccc(NCc2cc(Nc3ccccc3)c3c4c(onc24)-c2ccccc2C3=O)c1OC | -2 | 0.3 |
| O=C(N[C@H](CO)C1CCCCC1)[C@@H]1CCCN1C1CCNCC1 | -7 | 1.16 |
| CCOc1ccc2nc(CN3CC(O)C(Cc4cc(C)no4)C3)ccc2c1 (stereo unspecified) | -11 | 1.89 |
| O=C(NCC1CCN(Cc2ccc(-c3cccnc3)cc2)CC1)c1ccnnc1 | 6 | -1.08 |
| Cn1nc(C2CC2)nc1CNc1cccc(Oc2ccc(Br)cc2)c1 | 3 | -0.61 |
| CCn1ccnc(N2CCC(NC(=O)c3cc4cc(F)ccc4[nH]3)CC2)c1=O | -7 | 1.35 |
| Cc1nc(N2CCCC2)nc(N[C@H]2CCCNC2)c1C | 9 | -1.58 |
| CC1(C)CC(NC(=O)N2CCC[C@H](N3CCCC3)CC2)CC(C)(C)N1 | -2 | 0.41 |
| Oc1cc(CN2CCN([C@H]3CCNC3)CC2)nc2ccc(F)cc12 | -16 | 2.75 |
| Cc1cc(N2CCC(N(C)Cc3cc(-c4ccccc4)n[nH]3)CC2)nc(N)n1 | 41 | -8.91 |
| C[C@@]1(C2CCN(S(=O)(=O)c3ccco3)CC2)NC(=O)NC1=O | -6 | 1.22 |

| SMILES | % Inhibition [%] | Z score |
| --- | --- | --- |
| Cc1noc(-c2ccnc(N(C)CC3CCN(Cc4ccccc4)CC3)c2)n1 | -6 | 1.1 |
| C[C@@H](CNc1cc(-n2cccn2)nc(N)n1)CN1CCCC1 | 2 | -0.36 |
| CCN(CC)Cc1cccc(CNc2ncnc3ccc(F)cc23)c1 | -1 | 0.18 |
| CC1(C)CC(Nc2ccc(S(=O)(=O)C(F)(F)F)cc2)CC(C)(C)N1 | -1 | 0.13 |
| O=C(NCCN1CCC(N2CCCCC2)CC1)c1cn2c(n1)C(=O)N(CC1CC1)CC2 | -6 | 1.09 |
| c1ccc(CN(C[C@H]2CCCO2)c2cc(C3CCNCC3)ncn2)nc1 | -5 | 0.94 |
| C[C@](O)(CNCc1cc(O)c2ccccc2n1)C(F)F | -1 | 0.25 |
| Cc1nccn1Cc1cccc(CNc2nn3cc(-c4ccccc4)nc3s2)c1 | 7 | -1.04 |
| CN1CCN(C[C@@H](O)CN(C)c2ncnc3[nH]ccc23)CC1 | -1 | 0.15 |
| CC(C)N1C[C@@H](CN(C)Cc2ccccn2)CCC1=O | 0 | -0.03 |
| CCN1C(=O)CC[C@H](CNc2ncnc3[nH]ccc23)[C@H]1c1cnn(C)c1 | -5 | 0.72 |
| O=S(=O)(NC1CCN(c2ncnc3[nH]ccc23)CC1)c1ccc(F)cc1 | 2 | -0.4 |
| CN1C(=O)N(C)C2(CCN([C@H]3CCN(c4ccccc4)C3)CC2)C1=O | -4 | 0.73 |
| CCN1CCC(N2CCN(c3ccc4cccc(Cl)c4n3)CC2)CC1 | 4 | -0.84 |
| CN(C)c1ccnc(N2CCN(c3cc(N4CCOCC4)ncn3)CC2)n1 | -8 | 1.44 |
| CCc1ncnc(N[C@H]2CCN(C3CCN(C)CC3)C2)c1F | -4 | 0.6 |
| CN(CCc1nc2cc(Cl)ccc2[nH]1)CC[C@H]1CCCN1C | 9 | -1.78 |
| Cc1ccc(N2CCC(NC(=O)c3cc4sccc4[nH]3)CC2)nc1 | 9 | -1.61 |
| O[C@H]1CC[C@H](n2cnc(-c3ccccc3)c2-c2cccc3nonc23)CC1 | 1 | -0.2 |
| CN(C)c1ncnc2c1CCN(C(=O)[C@@H]1CCC(=O)NC(=O)N1)C2 | -3 | 0.54 |
| Cc1cc(C)n(C(C)CC(=O)N2CCOC(c3ncon3)C2)n1 (stereo unspecified) | -14 | 2.1 |
| Cc1ccc2nc(CNCCS(C)(=O)=O)cc(O)c2c1 | -11 | 1.98 |
| CN(C)C(CNc1ncc(Cl)c(NCC(c2ccco2)N(C)C)n1)c1ccco1 (stereo unspecified) | -5 | 1 |
| Cc1cnc(Nc2nc3ccc(OC(F)(F)F)cc3s2)s1 | 0 | 0.1 |
| CN1CCN(C(=O)c2cncc(N3CCN(CCOc4ccccc4)CC3)n2)CC1 | -11 | 1.85 |
| c1cc(CNc2ncnc3sccc23)cc(OC2CCC2)n1 | -1 | 0.24 |
